In the supplement of paper PMC8728848:
Some of the results follow.

How the values were obtained:
Assay in all cases: glycan array binding signal (z-score within array); higher = stronger binding
Details in all cases: glycan notation: IUPAC condensed, linker removed
[1] = molecular target: Gal(b1-4)GlcNAc(b1-3)Gal(b1-4)GlcNAc(b1-3)Gal(b1-4)GlcNAc(b1-3)Gal(b1-4)GlcNAc(b1-2)Man(a1-3)[Gal(b1-4)GlcNAc(b1-3)Gal(b1-4)GlcNAc(b1-3)Gal(b1-4)GlcNAc(b1-3)Gal(b1-4)GlcNAc(b1-2)Man(a1-6)]Man(b1-4)GlcNAc(b1-4)[Fuc(a1-6)]GlcNAc
Outline: (§1)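 Glycan array data were curated from 3228 arrays in the Consortium for Functional Glycomics database and kept only where the protein sequence was available. Glycan names were converted to IUPAC-condensed notation, and columns mapping to the same glycan were averaged. The binding signal is a within-array Z-score, averaged across arrays of the same protein sequence at different concentrations or buffers and across linkers. Negative Z-scores can be read as non-binding.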

[2] = molecular target: Gal(b1-4)GlcNAc(b1-3)Gal(b1-4)GlcNAc(b1-3)Gal(b1-4)GlcNAc(b1-3)Gal(b1-4)GlcNAc(b1-2)[Gal(b1-4)GlcNAc(b1-3)Gal(b1-4)GlcNAc(b1-3)Gal(b1-4)GlcNAc(b1-3)Gal(b1-4)GlcNAc(b1-6)]Man(a1-6)[Gal(b1-4)GlcNAc(b1-3)Gal(b1-4)GlcNAc(b1-3)Gal(b1-4)GlcNAc(b1-3)Gal(b1-4)GlcNAc(b1-2)Man(a1-3)]Man(b1-4)GlcNAc(b1-4)[Fuc(a1-6)]GlcNAc
Outline: as §1

[3] = molecular target: Gal(b1-4)GlcNAc(b1-3)Gal(b1-4)GlcNAc(b1-3)Gal(b1-4)GlcNAc(b1-3)Gal(b1-4)GlcNAc(b1-3)Gal(b1-4)GlcNAc(b1-2)Man(a1-3)[Gal(b1-4)GlcNAc(b1-3)Gal(b1-4)GlcNAc(b1-3)Gal(b1-4)GlcNAc(b1-3)Gal(b1-4)GlcNAc(b1-3)Gal(b1-4)GlcNAc(b1-2)Man(a1-6)]Man(b1-4)GlcNAc(b1-4)GlcNAc
Outline: as §1

[4] = molecular target: Gal(b1-4)GlcNAc(b1-3)Gal(b1-4)GlcNAc(b1-3)Gal(b1-4)GlcNAc(b1-3)Gal(b1-4)GlcNAc(b1-3)Gal(b1-4)GlcNAc(b1-2)Man(a1-3)[Gal(b1-4)GlcNAc(b1-3)Gal(b1-4)GlcNAc(b1-3)Gal(b1-4)GlcNAc(b1-3)Gal(b1-4)GlcNAc(b1-3)Gal(b1-4)GlcNAc(b1-2)Man(a1-6)]Man(b1-4)GlcNAc(b1-4)[Fuc(a1-6)]GlcNAc
Outline: as §1

[5] = molecular target: Gal(b1-4)GlcNAc(b1-3)Gal(b1-4)GlcNAc(b1-3)Gal(b1-4)GlcNAc(b1-3)Gal(b1-4)GlcNAc(b1-3)Gal(b1-4)GlcNAc(b1-2)[Gal(b1-4)GlcNAc(b1-3)Gal(b1-4)GlcNAc(b1-3)Gal(b1-4)GlcNAc(b1-3)Gal(b1-4)GlcNAc(b1-3)Gal(b1-4)GlcNAc(b1-6)]Man(a1-6)[Gal(b1-4)GlcNAc(b1-3)Gal(b1-4)GlcNAc(b1-3)Gal(b1-4)GlcNAc(b1-3)Gal(b1-4)GlcNAc(b1-3)Gal(b1-4)GlcNAc(b1-2)Man(a1-3)]Man(b1-4)GlcNAc(b1-4)[Fuc(a1-6)]GlcNAc
Outline: as §1

[6] = molecular target: Gal(b1-4)GlcNAc(b1-3)Gal(b1-4)GlcNAc(b1-3)Gal(b1-4)GlcNAc(b1-3)Gal(b1-4)GlcNAc(b1-3)Gal(b1-4)GlcNAc(b1-3)Gal(b1-4)GlcNAc(b1-2)Man(a1-3)[Gal(b1-4)GlcNAc(b1-3)Gal(b1-4)GlcNAc(b1-3)Gal(b1-4)GlcNAc(b1-3)Gal(b1-4)GlcNAc(b1-3)Gal(b1-4)GlcNAc(b1-3)Gal(b1-4)GlcNAc(b1-2)Man(a1-6)]Man(b1-4)GlcNAc(b1-4)GlcNAc
Outline: as §1

[7] = molecular target: Gal(b1-4)GlcNAc(b1-3)Gal(b1-4)GlcNAc(b1-3)GalNAc
Outline: as §1

[8] = molecular target: Gal(b1-4)GlcNAc(b1-3)Gal(b1-4)GlcNAc(b1-3)[Gal(b1-4)GlcNAc(b1-3)Gal(b1-4)GlcNAc(b1-6)]GalNAc
Outline: as §1

[9] = molecular target: Gal(b1-4)GlcNAc(b1-3)Gal(b1-4)GlcNAc(b1-6)[Gal(b1-3)]GalNAc
Outline: as §1

[10] = molecular target: Gal(b1-4)GlcNAc(b1-3)Gal(b1-4)[Fuc(a1-3)]GlcNAc(b1-3)Gal(b1-4)[Fuc(a1-3)]GlcNAc
Outline: as §1

[11] = molecular target: Gal(b1-4)GlcNAc(b1-3)GalNAc
Outline: as §1

[12] = molecular target: Gal(b1-4)GlcNAc(b1-3)[Fuc(a1-3)GlcNAc(b1-6)]Gal(b1-4)Glc
Outline: as §1

[13] = molecular target: Gal(b1-4)GlcNAc(b1-3)[Gal(b1-4)GlcNAc(b1-6)]Gal(b1-4)GlcNAc
Outline: as §1

[14] = molecular target: Gal(b1-4)GlcNAc(b1-3)[GlcNAc(b1-6)]Gal(b1-4)GlcNAc
Outline: as §1

[15] = molecular target: Gal(b1-4)GlcNAc(b1-6)Gal(b1-4)GlcNAc
Outline: as §1

[16] = molecular target: Gal(b1-4)GlcNAc(b1-6)GalNAc
Outline: as §1

[17] = molecular target: Gal(b1-4)GlcNAc(b1-6)[Gal(b1-3)]GalNAc
Outline: as §1

[18] = molecular target: Gal(b1-4)GlcNAc(b1-6)[Gal(b1-4)GlcNAc(b1-3)]GalNAc
Outline: as §1

Gal(b1-4)GlcNAc6P = molecular target: Gal(b1-4)GlcNAc6P
Outline: as §1

Gal(b1-6)Gal = molecular target: Gal(b1-6)Gal
Outline: as §1

Gal3S(b1-3)GalNAc = molecular target: Gal3S(b1-3)GalNAc
Outline: as §1

Gal3S(b1-3)GlcNAc = molecular target: Gal3S(b1-3)GlcNAc
Outline: as §1

[19] = molecular target: Gal3S(b1-3)[Fuc(a1-4)]GlcNAc
Outline: as §1

Gal3S(b1-4)Glc = molecular target: Gal3S(b1-4)Glc
Outline: as §1

Gal3S(b1-4)Glc6S = molecular target: Gal3S(b1-4)Glc6S
Outline: as §1

Gal3S(b1-4)GlcNAc = molecular target: Gal3S(b1-4)GlcNAc
Outline: as §1

[20] = molecular target: Gal3S(b1-4)[Fuc(a1-3)]Glc6S
Outline: as §1

[21] = molecular target: Gal3S(b1-4)[Fuc(a1-3)]GlcNAc
Outline: as §1

[22] = molecular target: Gal3S(b1-4)[Fuc(a1-3)]GlcNAc6S
Outline: as §1

Gal3S4S(b1-4)GlcNAc = molecular target: Gal3S4S(b1-4)GlcNAc
Outline: as §1

Gal3S6S(b1-4)GlcNAc = molecular target: Gal3S6S(b1-4)GlcNAc
Outline: as §1

Gal3S6S(b1-4)GlcNAc6S = molecular target: Gal3S6S(b1-4)GlcNAc6S
Outline: as §1

Gal4S(b1-4)GlcNAc = molecular target: Gal4S(b1-4)GlcNAc
Outline: as §1

Gal4S6S(b1-4)GlcNAc = molecular target: Gal4S6S(b1-4)GlcNAc
Outline: as §1

Gal6P(b1-4)GlcNAc = molecular target: Gal6P(b1-4)GlcNAc
Outline: as §1

Gal6S(b1-3)GlcNAc = molecular target: Gal6S(b1-3)GlcNAc
Outline: as §1

Gal6S(b1-3)GlcNAc6S = molecular target: Gal6S(b1-3)GlcNAc6S
Outline: as §1

Gal6S(b1-4)Glc = molecular target: Gal6S(b1-4)Glc
Outline: as §1

B1: mCC1-Hexahis-Precomplexed (Mus musculus), P31809 (protein)
chain: MELASAHLHKGQVPWGGLLLTASLLASWSPATTAEVTIEAVPPQVAEDNNVLLLVHNLPLALGAFAWYKGNTTAIDKEIARFVPNSNMNFTGQAYSGREIIYSNGSLLFQMITMKDMGVYTLDMTDENYRRTQATVRFHVHPILLKPNITSNNSNPVEGDDSVSLTCDSYTDPDNINYLWSRNGESLSEGDRLKLSEGNRTLTLLNVTRNDTGPYVCETRNPVSVNRSDPFSLNIIYGPDTPIISPSDIYLHPGSNLNLSCHAASNPPAQYFWLINEKPHASSQELFIPNITTNNSGTYTCFVNNSVTGLSRTTVKNITVLEPVTQPFLQVTNTTVKELDSVTLTCLSNDIGANIQWLFNSQSLQLTERMTLSQNNSILRIDPIKREDAGEYQCEISNPVSVRRSNSIKLDIIFDPTQGGLSDGHHHHHH
glycan array binding signal (z-score) [1]: -0.19 | glycan array binding signal (z-score) [2]: -0.071 | glycan array binding signal (z-score) [3]: -0.227 | glycan array binding signal (z-score) [4]: -0.193 | glycan array binding signal (z-score) [5]: -0.084 | glycan array binding signal (z-score) [6]: 0.019 | glycan array binding signal (z-score) [7]: 6.28 | glycan array binding signal (z-score) [8]: 4.46 | glycan array binding signal (z-score) [9]: 5.01 | glycan array binding signal (z-score) [10]: -0.031 | glycan array binding signal (z-score) [11]: -0.081 | glycan array binding signal (z-score) [12]: 0.712 | glycan array binding signal (z-score) [13]: -0.185 | glycan array binding signal (z-score) [14]: -0.196 | glycan array binding signal (z-score) [15]: -0.19 | glycan array binding signal (z-score) [16]: -0.217 | glycan array binding signal (z-score) [17]: -0.217 | glycan array binding signal (z-score) [18]: -0.153 | glycan array binding signal (z-score) (Gal(b1-4)GlcNAc6P): -0.289 | glycan array binding signal (z-score) (Gal(b1-6)Gal): -0.239 | glycan array binding signal (z-score) (Gal3S(b1-3)GalNAc): -0.308 | glycan array binding signal (z-score) (Gal3S(b1-3)GlcNAc): -0.236 | glycan array binding signal (z-score) [19]: -0.249 | glycan array binding signal (z-score) (Gal3S(b1-4)Glc): -0.25 | glycan array binding signal (z-score) (Gal3S(b1-4)Glc6S): -0.194 | glycan array binding signal (z-score) (Gal3S(b1-4)GlcNAc): -0.255 | glycan array binding signal (z-score) [20]: -0.049 | glycan array binding signal (z-score) [21]: -0.277 | glycan array binding signal (z-score) [22]: -0.225 | glycan array binding signal (z-score) (Gal3S4S(b1-4)GlcNAc): -0.229 | glycan array binding signal (z-score) (Gal3S6S(b1-4)GlcNAc): -0.321 | glycan array binding signal (z-score) (Gal3S6S(b1-4)GlcNAc6S): -0.276 | glycan array binding signal (z-score) (Gal4S(b1-4)GlcNAc): -0.25 | glycan array binding signal (z-score) (Gal4S6S(b1-4)GlcNAc): -0.237 | glycan array binding signal (z-score) (Gal6P(b1-4)GlcNAc): -0.271 | glycan array binding signal (z-score) (Gal6S(b1-3)GlcNAc): -0.181 | glycan array binding signal (z-score) (Gal6S(b1-3)GlcNAc6S): -0.249 | glycan array binding signal (z-score) (Gal6S(b1-4)Glc): -0.191
